Data on 90 molecules can be found in paper PMC4336329 (PLoS ONE, 2015).

Out of some 310,000 compounds screened, about 2,200 (0.71%) showed an effect of 50% or more. Effects have a minus sign here. The list shows a part of the results.

The target of the test is human ether-à-go-go-related gene (hERG) potassium channel (human, UniProt Q12809). The test is described as follows: primary screen, population patch clamp on CHO cells stably expressing hERG.
human ether-à-go-go-related gene (hERG) potassium channel, sequence (Q12809 whole entry, looked up): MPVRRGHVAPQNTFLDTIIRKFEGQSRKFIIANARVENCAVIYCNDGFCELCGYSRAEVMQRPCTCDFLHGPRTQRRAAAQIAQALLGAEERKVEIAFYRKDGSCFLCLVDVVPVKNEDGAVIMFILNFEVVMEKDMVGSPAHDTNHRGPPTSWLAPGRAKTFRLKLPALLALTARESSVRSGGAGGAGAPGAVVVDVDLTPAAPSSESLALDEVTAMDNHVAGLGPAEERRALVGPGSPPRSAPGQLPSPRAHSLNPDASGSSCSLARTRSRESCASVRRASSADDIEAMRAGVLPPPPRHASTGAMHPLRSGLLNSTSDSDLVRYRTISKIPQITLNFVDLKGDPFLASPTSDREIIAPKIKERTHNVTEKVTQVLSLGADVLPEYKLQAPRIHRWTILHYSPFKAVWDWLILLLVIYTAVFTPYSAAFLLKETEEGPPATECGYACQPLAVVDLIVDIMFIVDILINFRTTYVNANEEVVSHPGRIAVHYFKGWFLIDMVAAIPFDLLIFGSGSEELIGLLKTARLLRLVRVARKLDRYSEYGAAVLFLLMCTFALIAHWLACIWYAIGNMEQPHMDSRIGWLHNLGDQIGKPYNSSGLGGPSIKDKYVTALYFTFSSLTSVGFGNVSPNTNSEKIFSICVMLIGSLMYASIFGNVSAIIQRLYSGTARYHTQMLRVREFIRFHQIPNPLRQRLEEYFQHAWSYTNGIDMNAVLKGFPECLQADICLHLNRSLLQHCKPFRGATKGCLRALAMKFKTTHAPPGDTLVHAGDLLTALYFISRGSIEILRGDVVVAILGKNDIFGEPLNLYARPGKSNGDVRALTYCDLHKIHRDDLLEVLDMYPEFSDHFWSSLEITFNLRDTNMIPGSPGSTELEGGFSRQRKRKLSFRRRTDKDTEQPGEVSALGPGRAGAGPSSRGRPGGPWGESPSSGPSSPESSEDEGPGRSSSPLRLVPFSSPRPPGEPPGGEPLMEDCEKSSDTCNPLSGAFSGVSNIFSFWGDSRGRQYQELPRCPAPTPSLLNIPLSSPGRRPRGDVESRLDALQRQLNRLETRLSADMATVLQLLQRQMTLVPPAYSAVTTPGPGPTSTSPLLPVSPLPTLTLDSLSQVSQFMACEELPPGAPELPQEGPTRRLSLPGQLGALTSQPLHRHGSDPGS
For `COc1ccc(C(C)C)cc1S(=O)(=O)Nc1ncn[nH]1`, the “hERG current change (%, negative = inhibition) at 1uM” value amounted to 23.7%. The figure for `O=C(OCC1CC(c2ccccn2)=NO1)c1ccc(Br)cc1` (stereo not drawn) is 10.8%; for `COC(=O)C(NC(C)=O)(Nc1ccc(Br)cc1)C(=O)OC` it is 21.5%.

For the molecule `O=C(Nc1ccccc1Cl)NC1CCCCCCC1`, the “hERG current change (%, negative = inhibition) at 1uM” value is listed as 12.5%. The value for `Cc1cccc(CNC(=O)c2ccc(NC(=O)C3=CSCCO3)cc2)c1` was -1.21%; that for `COc1ccc(C)cc1CN1C(=O)c2ccccc2C1=O` was 17.9%. In the case of `O=c1ccc2cc(S(=O)(=O)N3CCN(c4ccc(Cl)cc4)CC3)ccc2o1`, the “hERG current change (%, negative = inhibition) at 1uM” value is -14.3%.

As to `CCOc1ccccc1NC(=O)C(OC(=O)c1ccc(N(C)C)cc1)c1ccccc1` (stereo not drawn), the “hERG current change (%, negative = inhibition) at 1uM” value turned out to be 7.83%.

On to `Cc1nc2sc3c(c2c(=O)[nH]1)CCCC3`, for which the “hERG current change (%, negative = inhibition) at 1uM” value is listed as 4.41%. For the molecule `COc1ccc(C(=O)NC(=S)Nc2ccccc2N2CCOCC2)cc1Br`, the “hERG current change (%, negative = inhibition) at 1uM” value was found to be 11.9%. Regarding `Cc1cccc2nc(-c3ccccc3)nc(N[C@@H](CO)c3ccccc3)c12`, the “hERG current change (%, negative = inhibition) at 1uM” value is 7.16%. On to `COC(=O)c1cn(NC(=O)c2ccncc2)c(=O)c2ccccc12`, for which the “hERG current change (%, negative = inhibition) at 1uM” value came to 5.07%. `O=[N+]([O-])c1ccc(N2CCCC2)cc1N/N=C1\CN2CCC1CC2`: the “hERG current change (%, negative = inhibition) at 1uM” value stood at 9.77%. The value for `O=C(NCCOc1ccc(F)cc1)C1CCC(=O)N(CCN2CCOCC2)C1` (stereo not drawn) was 6.52%; that for `Cc1ccc(N2CC(C(=O)Nc3nnc(SCC(=O)N4CCOCC4)s3)CC2=O)cc1` (stereo not drawn) was 15.1%. As for `COc1ccc(N=CC2=C(O)CC(c3ccccc3)CC2=O)c(OC)c1` (stereo not drawn), the “hERG current change (%, negative = inhibition) at 1uM” value worked out at 7.88%.

`Cc1nn2c(C(F)(F)F)c3c(nc2c1-c1ccccc1)CCC3`: the “hERG current change (%, negative = inhibition) at 1uM” value is on record as 12.7%.

As to `COC(=O)C(NC(C)=O)(Nc1cccc(C)n1)C(F)(F)F` (stereo not drawn), the “hERG current change (%, negative = inhibition) at 1uM” value came to 10.5%. The value for `O=C(Nc1nc2ccc(C(=O)N3CCCCC3)cc2s1)C1CCCCC1` was 11.3%; that for `O=C(COC(=O)C1CCC1)NCc1ccccc1Cl` was 20.3%; that for `CC1(C)CC(=O)C(C=NCC(O)c2ccccc2)=C(O)C1` (stereo not drawn) was 9.1%. The value for `Cc1csc(NC(=O)CN2C(=O)c3ccccc3C2=O)c1C(N)=O` was 8.69%; that for `CCN(CCCNC(=O)Cn1ncc2c([nH]c3ccc(C)cc32)c1=O)Cc1ccccc1` was 3.19%.

As for `O=S(=O)(c1ccc(NC(=S)NN=C2CCCCC2)cc1)N1CCOCC1`, the “hERG current change (%, negative = inhibition) at 1uM” value turned out to be 6.83%. The value for `CCc1nn(CC(=O)NCCCN(CC)c2cccc(C)c2)c(=O)c2cc3occc3n12` was 9.35%. Turning to `COC(=O)c1cc(OC)c(OC)cc1NC(=S)N1CCN(Cc2ccccc2)CC1`, the “hERG current change (%, negative = inhibition) at 1uM” value is 9.85%. The figure for `COc1ccccc1NC(=O)CSc1nnc(COc2ccccc2OC)n1C` is -1.07%; for `CCn1c(SCC(=O)N2CCN(C(=O)c3ccco3)CC2)nnc1C(C)C` it is 14.4%; for `Cc1noc(C)c1C(=O)OCC(=O)NC1CC1` it is 4.21%. The value for `CC(C)N(Cc1ccco1)/N=C/c1c(O)n(Cc2ccccc2)c(=O)[nH]c1=O` was 6.32%; that for `CCCCn1c(=O)n(CC(O)c2ccccc2)c(=O)c2c1ncn2C1CCCC1` (stereo not drawn) was -7.81%; that for `O=c1ccc(-c2ccc(S(=O)(=O)NCC3CCN(Cc4ccccc4F)CC3)s2)n[nH]1` was -22.1%.

As for `O=S(=O)(c1ccc2c(c1)N(Cc1ccc(Cl)cc1)C1CCCN21)N1CCOCC1` (stereo not drawn), the “hERG current change (%, negative = inhibition) at 1uM” value is 5.03%. The figure for `Cc1ccc(C)c(NS(=O)(=O)c2ccc3[nH]c(=O)[nH]c3c2)c1` is 10.9%; for `Cc1cc(C)n2nc(C(=O)OCC(=O)Nc3ccc(F)cc3F)nc2n1` it is 18.4%; for `COc1cccc(/C=C2\N=C(SC)SC2=O)c1OC` it is 4.18%. The figure for `CCOC(=O)Cc1c(C)nc2c(-c3ccc(Cl)cc3)c(C)nn2c1C` is 12.6%. The value for `CN(C)CCCn1c(SCc2c(Cl)cccc2Cl)nnc1-c1ccncc1.O=C(O)C(=O)O` was 7.97%; that for `O=C(NCCCN1CCOCC1)/C(=C/c1ccc(F)cc1)NC(=O)c1ccccc1` was -46.5%. Regarding `O=C(c1cc([N+](=O)[O-])ccc1N1CCOCC1)N1CCN(c2ccccc2)CC1`, the “hERG current change (%, negative = inhibition) at 1uM” value stood at 7.19%. Take `CCc1cc2c(SCC(=O)c3cccs3)ncnc2s1`: the “hERG current change (%, negative = inhibition) at 1uM” value is 12.6%.

Take `CC(CN1CCOCC1)C(=O)c1ccccc1.Cl` (stereo not drawn): the “hERG current change (%, negative = inhibition) at 1uM” value was found to be 18.1%. The figure for `Cn1nnnc1CCOCCc1nnnn1C` is 3.65%. With `CCOC(=O)[C@@H]1[C@H]2COc3cc(OC)ccc3[C@H]2N2C(=O)N(c3ccc(F)cc3)C(=O)[C@@]12C`, the “hERG current change (%, negative = inhibition) at 1uM” value was 12%. The value for `CCOC(=O)Cn1c(=O)oc2cc(S(=O)(=O)NCCc3ccc(C)cc3)ccc21` was 4.25%; that for `COc1ccc(C(C(N)=O)c2ncc(C(F)(F)F)cc2Cl)cc1OC` (stereo not drawn) was -2.83%.

Turning to `COc1nc(OC)nc(N2CCC(C(=O)NC3CCCCCC3)CC2)n1`, the “hERG current change (%, negative = inhibition) at 1uM” value is 10.1%. For the molecule `O=C(NC(=S)NNS(=O)(=O)c1ccc(Cl)cc1)c1cccnc1`, the “hERG current change (%, negative = inhibition) at 1uM” value was determined as 13.6%. With `O=[N+]([O-])c1ccc(-c2csc(N3CCCCCC3)n2)cc1`, the “hERG current change (%, negative = inhibition) at 1uM” value was 11.8%. `Cc1cc(C)nc(SCc2ccc(C(=O)O)o2)n1`: the “hERG current change (%, negative = inhibition) at 1uM” value is reported as 12.6%. `O=C1CC2(CCN(C(=O)COc3ccc(Cl)cc3)CC2)Oc2ccccc21`: the “hERG current change (%, negative = inhibition) at 1uM” value is recorded as -70.4%. In the case of `COc1cc(C)ccc1OCCOc1c(Cl)cc(Cl)cc1Cl`, the “hERG current change (%, negative = inhibition) at 1uM” value turned out to be 5.65%. The figure for `O=C(Nc1ccc(S(=O)(=O)Nc2ncccn2)cc1)c1cccnc1` is 13%; for `C=CCSc1nnc(-c2ccncc2)n1-c1ccc(OCC)cc1` it is -2.13%. The figure for `CCCCCCc1cc2cc(C(=O)OCC)c(=O)oc2cc1O` is 13.7%. The figure for `CC(C)(C)NC(=O)C1c2ccccc2Oc2ccccc21` is 14%.

Take `CCCCCCN1N=C(C)C(C(=O)c2ccc(Cl)cc2)C1=O` (stereo not drawn): the “hERG current change (%, negative = inhibition) at 1uM” value is recorded as 13.3%.

As to `Cc1ccc(S(=O)(=O)c2cc(C#N)c(=O)[nH]c2N)cc1`, the “hERG current change (%, negative = inhibition) at 1uM” value came to 18%. The value for `CCc1ccc(C(=O)CN2C(=O)NC3(CCOc4ccccc43)C2=O)s1` (stereo not drawn) was 5.13%; that for `Nc1ccc(S(=O)(=O)Nc2nc(-c3ccccc3)cc(-c3ccccc3)n2)cc1` was 17.6%. The value for `COc1ccc(N2CCN(C(=O)c3ccc(C(C)(C)C)cc3)CC2)cc1` was 9.86%; that for `C[C@@H](C(=O)Nc1ccc2c(c1)OCCO2)n1c(=O)[nH]c2ccccc2c1=O` was 18.8%; that for `N#Cc1ccccc1S(=O)(=O)N1CCN(c2cnccn2)CC1` was -0.756%.

As to `O=C(NCCN1CCOCC1)C1CCC(CNS(=O)(=O)c2ccccc2)CC1` (stereo not drawn), the “hERG current change (%, negative = inhibition) at 1uM” value is reported as 6.14%. The value for `COC(=O)N1C/C=C\C(c2ccc(OC)cc2)N(Cc2ccc(F)cc2)C(=O)C1` (stereo not drawn) was 12.3%; that for `CCOC(=O)Cn1nc(C)c(NC(=O)c2ccc(Cl)c([N+](=O)[O-])c2)c1C` was 6.95%. As to `CCOc1ccccc1-n1c(=S)sc2c(=O)n(-c3ccc(F)cc3)c(SCC(=O)O)nc21`, the “hERG current change (%, negative = inhibition) at 1uM” value was 14.3%. Consider `CC(C)(C)Nc1nc(Nc2ccc([N+](=O)[O-])cc2)nc(NC(C)(C)C)n1`, for which the “hERG current change (%, negative = inhibition) at 1uM” value stood at 17.5%. Regarding `C=CCNc1nc(C(=O)OCC(=O)Nc2cc(S(C)(=O)=O)ccc2Cl)cs1`, the “hERG current change (%, negative = inhibition) at 1uM” value stood at 4.15%.

For `COc1cccc(CN2C(=O)C(C)N(C(=O)c3c(F)cccc3F)c3ccccc32)c1` (stereo not drawn), the “hERG current change (%, negative = inhibition) at 1uM” value is on record as 13.1%. For the molecule `Cc1cccc(NC(=S)NCC2CCCO2)c1` (stereo not drawn), the “hERG current change (%, negative = inhibition) at 1uM” value came to 3.07%. The figure for `COc1ccc(C2CC(c3ccccc3)Nc3ncnn32)cc1` (stereo not drawn) is -8.28%.

In the case of `Nc1nnc(SCC(=O)Nc2ccc3c(c2)OCCO3)s1`, the “hERG current change (%, negative = inhibition) at 1uM” value is reported as 0.499%.

On to `CC(C(=O)NCC1CCCO1)N(C(=O)c1snc(C(N)=O)c1N)c1ccccc1` (stereo not drawn), for which the “hERG current change (%, negative = inhibition) at 1uM” value stood at 3.21%. As to `Cc1ccc(NC(=O)CN2CCN(C)CC2)cc1S(=O)(=O)N1CCOCC1`, the “hERG current change (%, negative = inhibition) at 1uM” value is given as -36%. With `C=CCc1ccc(OCCOc2cccc3cccnc23)c(OC)c1`, the “hERG current change (%, negative = inhibition) at 1uM” value is 10.2%. The value for `O=c1c2c3c(sc2ncn1-n1cccc1)CCCCC3` was 6.27%; that for `Cc1ncc([N+](=O)[O-])n1CC(=O)N/N=C/c1ccccc1F` was -13.3%; that for `C=CCN1CCCC1CNC(=O)c1cc2[nH]nnc2cc1OC.Cl` (stereo not drawn) was 11.2%. On to `CC(C)(C)c1ccc(C(=O)NCc2ccc(Cl)cc2)cc1`, for which the “hERG current change (%, negative = inhibition) at 1uM” value amounted to 14.6%. The figure for `CCC(C)NC(=O)Cc1c(OC)ccc2cc(Br)ccc12` (stereo not drawn) is 7.45%. With `O=C(NCc1cccnc1)c1ccccc1-c1nc(-c2ccccc2)no1`, the “hERG current change (%, negative = inhibition) at 1uM” value was -3.2%. The value for `CC1CC(C)CN(CCCNC(=O)c2csc3c2CCCC3)C1` (stereo not drawn) was -39%; that for `Cc1c(C(=O)N(C)CC(=O)Nc2cccc(F)c2)oc2c(Cl)cccc12` was 1.41%. `Cc1cccn2c(=O)c(C=O)c(N3CCN(C)CC3)nc12`: the “hERG current change (%, negative = inhibition) at 1uM” value came out at 5.95%. In the case of `CCn1c2ccccc2c2nnc(SCc3ccc(C(=O)OC)o3)nc21`, the “hERG current change (%, negative = inhibition) at 1uM” value came out at 6.58%. The figure for `CNC(=O)c1ccc(-c2nc(-c3ccccc3)cs2)cc1` is 15.1%; for `O=C(c1cc2c(ccc3ccccc32)oc1=O)N1CCCC1` it is 18.2%; for `CCn1ccc(C(=O)Nc2ccc(S(=O)(=O)Nc3ccccc3OC)cc2)n1` it is -7.08%. In the case of `COc1ccc(N2CCN(C(=O)c3ccc4c(=O)n(Cc5ccc6c(c5)OCO6)c(=O)[nH]c4c3)CC2)cc1`, the “hERG current change (%, negative = inhibition) at 1uM” value was 25%.
